Experimental data published in the RNAGym collection of RNA variant scans (doi:10.7554/elife.90254).
The source gives no read counts; variants with many changes may rest on few reads.

B1: OR4K15 (parent)
chain: GUUAACGGUCAUAGGCCAUGGAAACUAGGAGCACCAUUUCGCUGCCAGUGAAGAAAUGAACAAAGAAAAUCUGGGCCAGGCAGGCAUCAAAAGAAAUAGUCUUGCGCUCAACCAGAAAGUCUGUAAUCAUUUUAAGGGUA

Variants of: B1
Experiment: self-cleavage, relative activity (ratio to wild type); higher = more cleavage; in vitro, sequencing; the parent is a self-cleaving ribozyme

Variant	self-cleavage
GUUAACGGUCAUAGGCCAUGGAAACUAGGAGCACCAUUUCGCUGCCAGUGAAGAAGUGUACAAAGGAAAUCUGGGCCAGGCAGGCAUCGAAAGAAAUAGUCUUGCGCUCAACCAGAAAGUCUGUAAUCAUUUUAAGGGCA [A56G A59U A66G A89G U139C]	1.37
GUUAACGGUCAUAGGCCAUGGAAACUAGGAGCACCUUUUCGCCGCCAGUGAGGAAAAGAACAAAGAAAAUCUGGGCCAGGCAGGCAUCAAAAGAAAUAGUCUUGCGCUCAACCAGAAAGUCUGUAAUCAUUUUAAGGGUA [A36U U43C A52G U57A]	1.37
GUUAACGGUCAUAGGCCAUGGAAACUAGGAGCACCAUUUUGCUGCCAGUGAAGAAAUGAACAAGGAAGAUCUGGGCCAGGCAGGCAUCAAAAGAAAUAGUCUUGCGCUCAACCAGGAAGUCUGUAAUCAUUUUAAGGGUA [C40U A64G A68G A116G]	0.9
GUUAACGGUCAUAGGCCACGGAAACUAGGAGCACCAUUUCGCUGCCAGUGAAGAAAUGAACAAAGAAAAUCUGGGCCAGGCAGGCAUCAAAAGAAAUAGUCUUGCGCUCAACCAGAAAGUCUGUAACCAUUUCAAGGGUA [U19C U127C U133C]	0.49
GUUAACGGUCAUAGGCCACGGAAACUAGGAGCACCACUUCGCUGCCAGUGAGGAAAUGAACAAAGAAAAUCUGGGCCAGGCAGGCACCAACAGAAAUAGUCUUGCGCUCAACCAGAAAGGCUGUAAUCAUUUUAAGGGUA [U19C U37C A52G U87C A91C U120G]	1.11
GUUAACGGUCAUAGGCCAUGGAACCCAGGAGCACCAUUUCGCUGCCAGUGAAGAAGUGAGCAAAGAAAAUCUGGGCCGGGCGGGCAUCAAAAGAAAUAGUCUUGCGCUCAACCAGAAAGUCUGUAAUCAUUUUAAGGGUA [A24C U26C A56G A60G A78G A82G]	0.32
GUUAACGGCCAUAGGCCAUGGAAACUAGGAGCACCAUUUCGCUGCCAGUGAAGAAAUGGACAAAGAAAAUCUGGGCCAGGCAGGCAUCAAAAGAAAUAGUCUCGCGCCCAACCAGAAAGUCUGUAAUCAUUUUAAGGGUA [U9C A59G U103C U108C]	0.04
GUUAACGGUCAUAGGCCAUGGAAACUAGGAGCACCAUUUCGCUGCUAGUGAAGAAAUGAACAAAGAAAAUCCGGGCCAGGCAGGCAUCAAAAGAAAUAGUCUUGCGCUCAACCGGAAAGUCUGUAAUCAUUCUAAGGGUA [C46U U72C A114G U132C]	1.99
GUUAACGGUCAUAGGCCAUGGAAACCAGGAGCACCAUUACGCUGCCAGCGAAGAAAUGAACAAAGAAAAUCUGGGCCAGGCAGGCAUCAAAAGAAAUAGUCUUGCGCCCAACCAGAAAGUCUGUAAUCAUUUUAAGGGUA [U26C U39A U49C U108C]	0.01
GUUAACGGUCAAAGGCCAUGGAAACUAGGAGCACCAUUUCGCUGCCAGUGAAGAAAUGAACAAAGAAAAUCUGGGCCAGGCAGGCUUCAAAAGAAAUAGUCUUGCGCACAACCAGAAAGUCUGUAAUCAUUUUAAGGGUA [U12A A86U U108A]	0.01
GUUAACGGUCAUAGGCCAUGGAAACUAGGAGCACCAUUUCGCUGCCAGUGAAGAAAUGAACAAGGAAAAUCUGGGCCUGUCUGGCAUCAGAAGAAGUAGUCUCGCGCUCAACCAGAAAGUCUGUAAUCAUUUUAAGGGUA [A64G A78U G80U A82U A90G A96G U103C]	0.03
GUUAACGGACAUAGGCCAUGGAAACUAGGAGCGCCAUUUCGCUGCCAGUGAAGAAAUGAACAAAGAAAAUCUGGGCCAGGCAGGCAUCAAAAGAAAUAGACUUGCGCUCAACCAGGAAGUCUGUAAUCAUUUUAAGGGUA [U9A A33G U100A A116G]	0.08
GUUAACGGUCAUAGGCCAUGGAAACUAGGAGCACCAUUUCGCUGCCAGUGAAGAAAUGAACAAAGAAAAUCCGGGCAGGGCAGGCAUCAAAAGAAAUAGUCUUGCGCUCAACCAGAAAGUCUGUAAUCAUUUUAAGGGUU [U72C C77A A78G A140U]	0.25
GUUAACGGUCAUAGGCCAUGGAAACUAGGAGCACCAUUUCGCUGCCAGUGAAGAAAUGAACAGAGAAAAUCUGGGCCGGGCAGGCAUCAAAAGAAGUAGUCUUGCGCUCAACCAGAAAGUCUGUAAUCAUUUUAAGGGUA [A63G A78G A96G]	0.16
GUCAACGGUCAUAGGCCAUGGAAACUAGGAGCACCAUUUCGCUGCCAGUGAAGAAAUGAACAAAGGAAAUCUGGGCCAGGCAGGCAUCAAAAGAAAUAGUCUUGCGCCCAACCAGAAAGUCUGUAAUCAUUUUAAGGGUA [U3C A66G U108C]	0.03
GCUAACGGUCAUAGGCCAUGGAAACUAGGAGCACCAUUUCGCUGCCAGUGAAGAAAUGAACAAAGAAAAUCUGGGCCAGGCAGGCACCAAAAGAAAUAGUCUUGCGCUCAACCAGAAAGUCCGUAAUCAUUUUAAGGGUA [U2C U87C U122C]	0.7
GUUAACGGUCAUAGGCCAUGGAAACUAGGAGCACCAUCUCGCUGCCAGUGAAGAAAUGAACAAAGGAAAUCUGGGCCAGGCAGGCAUCAAAGGAAAUAGUCUUGCGCUCAACCAGAAAGUCUGUAAUCAUUUUAAGGGUA [U38C A66G A92G]	1.73
GUUAACGGUCAUAGGCCAUGGAAACUAGGAGCACCAUUUCGUUGCCAGUGAAGAAAUGAACAAGGAAAAUCUGGGCCAGGCAGGCAUCAAAAGAAAUAUUCUUGCGCCCAACCAGAAAGCCUGUAAUCAUUCUAAGGGUA [C42U A64G G99U U108C U120C U132C]	0.03
GUUAACGGUCAUAGGCCAUGGAAACUAGGAGCACCAUUUCGCUGCCAGUGAAGAAAUGAACAAAGAAAAUCUGGGCCGGGCAGGCAUCAAAAGAAAUAGUCUUGCGCUCGACCAGGAAGUCUGUAAUCAUUCUAAGGGUA [A78G A110G A116G U132C]	0.02
GUUAACGGUCAUAGGCCAUGGAGACUAGGAGCACCAUUUCGCUGCCAGUGAAGAAACGAUCAAAGAAAAUCCGGGCCAGGCAGGCAUCAAAAGGAAUAGUCUCGCGCUCAACCAGAAAGUCUGUAAUCAUUUUAAGGGUA [A23G U57C A60U U72C A94G U103C]	0.05
GUUAACGGUCAUAGGCCGUGGAAACUAGGAGCACCAUUUCGCUGCCAGUGAAGAAAUGAACAAGGAAAAUCUAGGCCAGGCAGGCAUCAAAAGAAAUAGUCUUGCGCUCAACCAGAAAGUCUGUAAUCAUUUUAAGGGUA [A18G A64G G73A]	0.47

Variant	self-cleavage
GUUAACGGUCAUAGGCCAUGGAAACUAGGAGCACCAUUUCGCUGCCAGUGAAGAAAUGAACAAAGAAAAUCUGGGCCAGGCAGGCAUCAAAAGGAAUAGUCUUGCGCUCAAGCAGAAAGUCUGUAAUCAUUUUAAGGGGA [A94G C112G U139G]	0.04
GUUAACGGUCAUAGGCCAUGGAAACUAGGAGCACCAUUCCGCUGCCAGUGAAGAAAUGAACAAAGAAAGUCUGGGCCAGGCAGGCAUCAAAAGAAAUAGUCUUGCGCUCAACCAGAAAGCCUGUAAUCGUUUUAAGGGUA [U39C A69G U120C A129G]	0.87
GUUGACGGUCAUAGGCCAUGGAAACUAGGAGCACCAUUUCGCUGCCAGUGAAGAAAUGAACAAAGAAAAUCUGGGCCAGGCAGGCAUCAAAAGAAAUAGUCUUACGCUCAACCAGAAAGUCCGUAAUCAUUUUAAGGGUA [A4G G104A U122C]	0.03
GUUAACGGUCAUAGGCCAUGGAAACCAGGUGCACCAUUUCGCUGCCAGUGAAGAAAUGAACAAAGAAAAUCUGGGCCAGGCAGGCAUCAAAAGAAAUAGUCUUGCGCUCAACCAGAAGGUCUGUAAUCAUUUUAAGGGUA [U26C A30U A118G]	0.64
GUUAACGGUCAUAGGCCAUGGAAACUAGGGGCACCAUUUCGCUGCCAGUGAAGAGAUGAACAAAGAAAAUCUGGGCCAGGCAGGCAUCAAAAGAAAUAGUCUUGCGCUCAACCAGGAAGUCUGUAAUCAUCUUAAGGGUA [A30G A55G A116G U131C]	0.56
GUUAACGGUCAUAGGCCGUGGAAACUAGGAGCACCAUUUCGCUGCCAGUGAAGAGAUGAACAAAGAAAAGCUGGGCCAGGCAGGCAUCAAAAGAAAUAGUCUUGCGCUCAACCAGAAAGUCUGUAAUCAUUUUAAGGGUA [A18G A55G U70G]	1.01
GUUAACGGUCAUAGGCCAUGGAAACUAGGAGCACCAUUUCGCAGCCAGUGAAGAAACGAACAAAGAAAAUCUGGGCCAGGCAGGCAUCAAAAGAAAUAGUCUUGCGCUCAACCCGAAAGUCUGUAAUCAUUUUAAGGGUA [U43A U57C A114C]	0.07
GUUAACGGUCAUAGGCCAUGGAAACUAGGAGCACCAUUUCGCCGCCAGUGAAGAAAUGAACAAAGAAAAUCUGGGCCAGGCAGGCAUCAAAAGAAACAGUCUUGCGCUCAACCAGAAAGUCUGUAACCAUUUUAAGGGUA [U43C U97C U127C]	0.56
GUUAACGGUCAUAGGCCAUGGAAACUAGGAGCACCAUUUCGCUGCCAGUGAAGAAAUGAACAAAGAAAAUCUGGGCCAGGCAGGCAUCAAAAGAAAUAGUCCUGCGCUCAACCAGAUAGUCUGUAAUCAUUUUAAGGGCA [U102C A117U U139C]	1.02
GUUAACGGUCAUAGGCCAUGGAAACUAGGAGCACCACUUCGCUGCCAGUGAAGAAAUGAACAAAGAAGAUCUGGGCCUGGCAGGCAUCAAAAGAAAUAGUCUUGCGCUCAACCAGAAAGUCUGUAAUCAUUUUAAGGGUA [U37C A68G A78U]	0.43
GUUAACGGCCAUAGGCCAUGGAAACUAGGAGCACCAUCUCGCUGCCAGUGAAGAAAUGAACAAAGAAAAUCUGGGCCAGGCAGGCAUCUAAAGAAAUAGUCUUGCGCUCAACCAGAAAGUCUGUAAUCAUUUUAAGGGUA [U9C U38C A89U]	2.66
GUUAACGGUCGUAGGCCAUGGAAACUAGGAGCACCAUUUCGCUGCCAGUGAAGAAAUGAGCAUAGAAAAUCUGGGCCGGGCAGGCAUCAAAAGAAAUAGUCUUGCGCUCAACCAGAAAGUCUGUAAUCAUUUUAAGGGUA [A11G A60G A63U A78G]	0.22
GUUAACGGUCAUAGGCCAUGGAAACUAGGAGCACCAUUUCGCUGCCAGUGAAGAAAUGAACAAAGAAAAUCUGGGCCAGGCAGGCAUCAAAAGAGAUAGUCUUGCGCUCAGCCAGGAAGUCUGUGAUCAUUUUAAGGGUA [A95G A111G A116G A125G]	0.01
GUUAACGGUCAUAGGCCAUGGAAACUAGGAGCGCCACUUCGCUGCCAGUGAAGAAAUGAACAAAGAAAAUCUGGGCCAGGCAGGCACCAAAAGAGAUAGUCUUGCGCUCUACCAGAAAGUCUGUAAUCAUUUUAAGGGUA [A33G U37C U87C A95G A110U]	0.44
GUUAACGGUCAUAGGCCAUGGAAACUAGGAGCACCAUUUCGCUGCCAGUGAAGAAAUGAACAAAGAAAAUCUGGGCCGGGCAGGCAUCAAAAGAAAUAGUCUUGCGCUCAACCAGAAAGUCUGUAGUCAUAUUAAGGGUA [A78G A126G U131A]	0.14
GUUAACGGUCAUAGGCCUUGGAAACUAGGAGCACCAUUUCGCUGCCAGUGAAGAAAAGAACAAAGAAAAUCUGGGCCAGGCAGGCAUCAAAAGAAAUAGUCUUGCGCUCAACCAGAAAGUCUGUAAUCGUUUUAAGGGUA [A18U U57A A129G]	0.87
GUUAACGGUCAUAGGCCAUGGAAACUAGGAGCACCAUUUCGCUGCCAGUGAAGAAAUGAACAAAGAAAAUCUAGGCCAGGCAGGUAUCAAAGGAAAUAGUCUUGCGCUCAACCAGAAAGUCUGUAAUCAUUUUAAGGGUA [G73A C85U A92G]	0.28
GUUAACGGUCAUAGGCCAUGGAAACUAGGAGCACCAUUUCGCUGCCGGUGAAGAAAAGAGCGAAGAAAAUCUGGGCCAGGCAGGCAUCAGAAGAAAUAGUCUUGCGCUCAACCAGAAAGUCUGUAAUUAUUUUAAGGGUA [A47G U57A A60G A62G A90G C128U]	0.19
GUUAACGGCCAUAGGCCAUGGAAACUAGGAGCACCAUUUCGCUGCCAGUGAAGAAAUGAACGAAGAAAAUCUGGGCCAGGCAGGCAUCAAAGGAAAUAGUCUUGCGCUCAACCAGAAAGUCUGUAAUCAUUUUAAGGGUA [U9C A62G A92G]	2.39
GUUAACGGUCAUAGGCCAUGGAAACUAGGAGCACCAUCCCGCUGCCAGUGUGGAAAUGAACAAAGAAGAUCUGGGCCAGGCAGGCAUCAAAAGAAAUAGUCUUGCGCUCAACCAGAAAGUCUGUAAUCAUUUUAAGGGUA [U38C U39C A51U A52G A68G]	1.7
